Measurements as given in PubChem BioAssay AID1159614 (National Center for Advancing Translational Sciences (NCATS), 2016).
Screen size: about 45,000 compounds; about 65 (0.1%) were called active. Calls come from the whole dose curve; as a rule, active = well fitted activation curve with a large enough effect; inconclusive = small, poorly fitted or top-dose-only effect; inactive = no such curve, though single readings can be large or run the other way. The list shows a part of the results.

Target: Galactocerebrosidase (Homo sapiens) (UniProt P54803)
Chain of UniProt P54803 (P54803 whole entry, looked up): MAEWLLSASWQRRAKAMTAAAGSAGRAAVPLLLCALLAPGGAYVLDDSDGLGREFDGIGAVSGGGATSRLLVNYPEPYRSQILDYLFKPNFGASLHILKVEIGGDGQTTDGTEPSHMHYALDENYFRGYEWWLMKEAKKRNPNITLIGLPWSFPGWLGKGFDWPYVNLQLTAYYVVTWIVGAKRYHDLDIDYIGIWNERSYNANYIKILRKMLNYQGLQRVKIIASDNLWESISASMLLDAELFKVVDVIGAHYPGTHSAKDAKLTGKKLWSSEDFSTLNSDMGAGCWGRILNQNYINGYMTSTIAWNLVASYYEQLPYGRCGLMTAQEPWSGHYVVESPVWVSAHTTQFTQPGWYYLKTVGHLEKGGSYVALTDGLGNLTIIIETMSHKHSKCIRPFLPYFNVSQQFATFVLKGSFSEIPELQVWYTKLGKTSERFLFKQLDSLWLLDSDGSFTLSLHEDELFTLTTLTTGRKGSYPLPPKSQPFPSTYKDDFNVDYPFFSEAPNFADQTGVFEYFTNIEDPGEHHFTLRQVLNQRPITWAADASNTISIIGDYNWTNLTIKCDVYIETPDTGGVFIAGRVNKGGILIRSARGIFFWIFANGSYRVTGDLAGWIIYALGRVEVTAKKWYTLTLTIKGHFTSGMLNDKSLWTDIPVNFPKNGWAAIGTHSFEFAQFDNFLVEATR
Assay: A Novel Cell-Based Assay to Identify Small Molecules for B -Galactocerebrosidase; note: 0% is about no effect; nearly all actives have a fitted effect of over 65% in size
Settings: 145M-Twi-hGALC-G270D cells, HMU-beta-Gal fluorescence, 48 h; series mostly up to 57.5 µM; activation: at the top concentration
Summary of the method: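 qHTS, 1536-well; 145M-Twi-hGALC-G270D cells (WT line also made) in DMEM/F12 + 10% FBS; compound incubation on live cells; HMU-β-gal 0.1 mM final, pH 5.2, NaTC; carbonate stop; fluorescence increase = enhanced residual activity.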

activation, inactive:
COc1ccccc1S(=O)(=O)Cc1ccc(C(=O)N2CCN(c3cc(Cl)ccc3C)CC2)o1 -8.23%, CCc1ccccc1NC(=O)COCc1cc(-c2ccco2)on1 -4.15%, CCOc1ccc(OCC)c(NC(=O)C2CCN(S(=O)(=O)c3ccc4c(c3)CC(C)N4C(C)=O)CC2)c1 (configuration not stated) -0.507%, Cc1ccc(N2C(=O)[C@@H]3CSC(c4ccc(Cl)cc4)N3C2=O)cc1 (some centres not stated) -13.8%, Cc1ccc2occ(CC(=O)N(Cc3ccc(Cl)cc3)Cc3ccco3)c2c1 -7.32%, CCOc1ccc2c(c1)c(=O)c(C(=O)c1ccc(CC)cc1)cn2CC(=O)Nc1cccc(Cl)c1 1.13%, O=C(NCCc1ccccc1)c1ccc2nc(CCc3ccccc3)oc2c1 -18.9%, Cc1cc(C)c(Cn2c(=O)n(CCC(=O)NCc3ccc4c(c3)OCO4)c(=O)c3ccccc32)c(C)c1 -2.63%, Cc1ccc(-n2c(CCC(=O)O)ccc2-c2cccs2)cc1Cl -8.98%, Cc1cc(O)c(C(c2ccccc2)N2CCN(c3ccc(F)cc3)CC2)c(=O)n1Cc1ccco1 (configuration not stated) -14.7%, O=C(c1ccco1)N(Cc1cccs1)c1ccc(F)cc1 -19.3%, CC(C)OCCCN1C(=O)c2[nH]nc(-c3ccccc3O)c2C1c1ccccc1F (configuration not stated) -11%, Cc1noc(-c2ccccc2OCC(=O)Nc2ccccc2[N+](=O)[O-])n1 -23.7%, COc1cccc(CNC(=O)c2ccc(-n3c(C)cc4c3CCCC4)cc2)c1 -9.41%, COc1ccc(CNC(=O)c2sc3nc[nH]c(=O)c3c2C)cc1 -8.41%, CCOc1ccccc1N1CC(c2nc3ccccc3n2CCCOc2ccc(OC)cc2)CC1=O (configuration not stated) -15.4%, O=C(NCC1CCN(Cc2cccc(Cl)c2)CC1)Nc1ccc(F)c(Cl)c1 2.68%, Cc1cccc(OCc2cc(=O)n3c4c(sc3n2)CCCC4)c1C -17.9%, CCc1ccc(C(=O)CC2(O)C(=O)N(Cc3ccc(C)cc3)c3ccccc32)cc1 (configuration not stated) -16.6%, CC(C)c1nc2ccc(C(=O)NCc3ccccc3Br)cc2o1 -37.6%, CCc1ccccc1NC(=O)c1cc2nc(-c3ccc(Br)cc3)cc(C(F)(F)F)n2n1 0.686%, CC(C)(C)c1ccc(C(=O)N2CCCC(c3nc4c(nnn4Cc4cccc(F)c4)c(=O)[nH]3)C2)cc1 (configuration not stated) -13.1%, Cc1ccc(-c2cn3nc(N4CCCC(C(=O)NCc5ccc(F)cc5)C4)sc3n2)cc1 (configuration not stated) -10.8%, CCCCOc1ccccc1C(=O)N(Cc1sccc1C)C1CCS(=O)(=O)C1 (configuration not stated) -0.544%, CCN1CCSc2ccc(C(=O)NCc3cccc(Br)c3)cc21 7.51%, CCOc1ccc(NC(=O)CSc2c3c(nc4ccccc24)CCCC3)cc1 -7.95%, COc1ccc2cc(CNc3ccc(C)cc3)c(=O)n(CC(=O)Nc3ccc(C)cc3Cl)c2c1 -3.13%, Cc1ccc2nc(CN3CCN(S(=O)(=O)c4ccc(C(C)C)cc4)CC3)oc2c1 -12.2%, CN(C)CCCn1c(-c2ccc(Cl)cc2)csc1=Nc1ccccc1 -22.3%, COC(=O)c1ccc(NC(=O)CCn2cnnn2)c(C)c1 -11.2%, COc1ccc(N2CCN(Cc3nc4c(c(=O)n(C)c(=O)n4C)n3C(C)C)CC2)cc1 -14.6%, Cc1cc(C)cc(NC(=O)Cn2c(=O)n(-c3ccc(C)c(C)c3)c(=O)c3oc4ccccc4c32)c1 -0.0304%, CCCc1cc(N2CCN(c3ccccc3F)CC2)n2cnnc2n1 -7.69%, CCOC(=O)c1c(C)oc2nc(C)nc(NCCc3ccc(C)cc3)c12 -45.9%, COc1cc(NC(=O)CN2CCCN(Cc3cccc(F)c3)S2(=O)=O)cc(OC)c1 -17.8%, Cc1ccc(NC(=O)c2oc3ccc(S(=O)(=O)N(C)C4CCCCC4)cc3c2C)c(C)c1 -16.9%, COc1ccc(-c2nc(C)c(CCNC(=O)c3ccc(C(F)(F)F)cc3)s2)cc1OC -9.75%, CCOc1ccc(NC(=O)CSc2oc(-c3ccco3)nc2S(=O)(=O)c2ccccc2)cc1 -4.53%, CCCNC(=O)c1cc2n(n1)CCCN(Cc1ccc(C)cc1)C2=O -12.4%, CC1=C(C(=O)N2CCCCC2)C(c2ccc(Cl)cc2)n2c(nc3ccccc32)N1 (configuration not stated) -14.7%, Cc1ccc(CN2C(=O)c3ccccc3Sc3ccc(C(=O)N4CCOCC4)cc32)cc1 -12.2%, Cc1cccc(C(=O)Nc2ccc(N3CC=C(c4ccccc4C)CC3)c(C(=O)O)c2)c1 -11%, Cc1ccc(S(=O)(=O)Nc2cc(Cl)c3oc4c(c3c2)CCCC4)cc1 -4.41%, O=C(NCCc1ccccc1)c1ccc2c(c1)nc1n2CCOC1 -17.1%, CCOc1ccc(CNC(=O)CSc2c3c(nc4cc(Cl)ccc24)CCCC3)cc1 -10.7%, Cc1c(-c2nsc(NC(=O)c3cccs3)n2)nnn1-c1ccc(F)cc1 -24.5%, COc1ccccc1CNC(=O)CCS(=O)(=O)c1ccc2c(c1)oc(=O)n2C -7.71%, CCOC(=O)c1cccc(NC(=O)CSc2ncc3c(n2)-c2ccc(Cl)cc2N(Cc2ccccc2)S3(=O)=O)c1 10.9%, O=S(=O)(c1ccccc1)c1nc(-c2ccc(F)cc2)oc1NCc1ccccc1 -15.3%, O=C(COc1ccccc1F)Nc1ccc2nc(SCC(=O)N3CCOCC3)sc2c1 -3.36%, CC(C)(Oc1ccc(Cl)cc1)C(=O)OCCCOC(=O)C(C)(C)Oc1ccc(Cl)cc1 -11.6%, COc1ccc(CNC(=O)CCCc2nnc3n(C(C)C)c(=O)c4sccc4n23)cc1 -12.2%, Cc1ccc(OCC(=O)NCC(=O)OCc2cc(=O)n3nc(C(C)C)sc3n2)cc1 -3.55%, CC(C)Oc1ccc(C(=O)N(Cc2ccc(N(C)C)cc2)Cc2ccco2)cc1 -5.74%, CCOC(=O)c1oc2c(c1C)-c1nn(Cc3cccc(Cl)c3)cc1CC2 -0.0455%, COc1ccc(C(=O)NC(c2ccccc2Cl)c2cc(Cl)c3cccnc3c2O)cc1 (configuration not stated) -13.3%, CCN(CC)S(=O)(=O)c1ccc2c(c1)N(CC(=O)Nc1c(C)cccc1C)C(=O)C1CCCN21 (configuration not stated) 4.76%, Cc1c(C)n(Cc2ccccc2)c2ccc(C(=O)N3CCN(c4ccccc4)CC3)cc12 3.12%, CCN(C(=O)Cn1c(=O)oc2cc(S(=O)(=O)N3CCCCCC3)ccc21)c1cccc(C)c1 -13.8%, O=C(CCS(=O)(=O)c1ccc(Br)s1)Nc1cc(C(F)(F)F)cc(C(F)(F)F)c1 8.25%, O=C(NCc1ccccc1)NC1COc2ccccc2C1 (configuration not stated) -14.8%, Cn1cc(S(=O)(=O)N2CCCCCC2)cc1C(=O)NCc1ccc(F)cc1 -3.63%
